Source: PubChem BioAssay AID624417 (National Center for Advancing Translational Sciences (NCATS), 2012)
Out of some 410,000 compounds screened, about 6,400 (1.6%) were called active. This list was built around the results that the source calls inconclusive (neither active nor inactive); the mix of calls is not that of the screen. Calls follow the shape of the dose curve; as a rule, active = well fitted inhibition curve with a large enough effect; inconclusive = small, poorly fitted or top-dose-only effect; inactive = no such curve, though single readings can be large or run the other way. Potencies beside an inconclusive call are fits to weak or partial responses and may not hold up.

molecular target: Glucagon-like peptide 1 receptor (Homo sapiens) (UniProt P43220); test: qHTS of GLP-1 Receptor Inverse Agonists (Inhibition Mode); conditions: HEK293 GLP-1R CRE-luciferase, luminescence, 24 h, GLP-1R form is constitutively active; activity change, negative = inhibition: at 38.3 µM (top of the series) unless noted; also: nearly all actives have a fitted effect of over 55% in size
UniProt P43220, sequence (P43220 whole entry, looked up): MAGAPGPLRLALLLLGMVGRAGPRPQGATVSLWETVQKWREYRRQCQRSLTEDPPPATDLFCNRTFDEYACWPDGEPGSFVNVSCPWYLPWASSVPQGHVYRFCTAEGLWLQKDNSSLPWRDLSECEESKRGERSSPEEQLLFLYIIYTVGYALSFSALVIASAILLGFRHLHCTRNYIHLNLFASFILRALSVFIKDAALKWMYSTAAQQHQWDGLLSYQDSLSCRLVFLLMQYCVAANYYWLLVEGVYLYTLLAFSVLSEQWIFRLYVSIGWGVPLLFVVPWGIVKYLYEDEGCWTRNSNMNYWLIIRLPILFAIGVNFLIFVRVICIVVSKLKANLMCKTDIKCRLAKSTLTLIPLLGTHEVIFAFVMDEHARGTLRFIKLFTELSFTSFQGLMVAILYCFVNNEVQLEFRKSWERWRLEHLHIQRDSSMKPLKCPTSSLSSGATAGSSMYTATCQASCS
Summary of the method: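 Inverse agonists were sought by their lowering of basal cAMP reporter luciferase output in HEK293 cells stably carrying constitutively active human GLP-1R, after 24 h compound treatment.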
% is scaled to controls: 0 for no effect and ±100 for the full control effect; potency is read from the fitted curve at half-maximal effect; tags tell the direction and shape of the fitted curve.

Potency, inactive:
COc1ccc(OCC(O)CNC2CCCC2)cc1 (stereo unspecified)
CCc1ccc(NC(=O)Cn2nnc(C(=O)Nc3cc(C)ccc3OC)c2N)cc1
O=[N+]([O-])c1ccc(C(S(=O)(=O)Cc2ccccc2)S(=O)(=O)Cc2ccccc2)cc1
CCC1(C)Cc2ccccc2-c2nc(NCCCO)n(-c3ccccc3)c(=O)c21 (stereo unspecified)
CC(=O)c1ccc(NC(=O)c2ccc(CN3C(=O)CCn4nc(C)cc43)cc2)cc1
COc1ccc(S(=O)(=O)NCCc2cn3ccsc3n2)cc1
C=CCn1c(C)nc2c(sc3nc4c(cc32)COC(C)(C)C4)c1=O
COc1ccccc1NC(=S)NC(=O)C(C)C

Potency, active:
Cc1cccc(-c2cc3nc(-c4ccccc4)cc(N4CCC5(CC4)OCCO5)n3n2)c1 10 µM
Cc1cccc(-n2ncc3c(Nc4c(C)cc(C)cc4C)ncnc32)c1 5.62 µM

Potency, inconclusive:
Cc1cc(NC(=O)COn2nnc3ccc(Cl)cc32)no1 3.55 µM [inhibitor, partial curve, poor fit]
Cc1ccc(N(C(=O)c2cccc(C)c2)S(=O)(=O)c2ccc(Cl)cc2)cc1 22.4 µM [inhibitor, single point]
CCn1c(SCC(=O)c2ccc3c(c2)OCCO3)nnc1-c1ccco1 28.2 µM [inhibitor, single point]
O=C(CCCc1cccs1)NCCc1c[nH]c2ccccc12 10 µM [inhibitor, partial curve]
O=C(CCN1CCN(c2ccccc2)CC1)Nc1ccc(Cl)cc1 11.2 µM [inhibitor, partial curve, poor fit]
CN1CCCC(OC(=O)c2cccc(Cl)c2)C1 (stereo unspecified) 6.31 µM [inhibitor, partial curve, poor fit]
Cn1nnnc1SCCCNCc1ccccc1OCc1ccccc1F 12.6 µM [inhibitor, partial curve, poor fit]
COc1ccc2oc(C(=O)NCC3CCCO3)c(C)c2c1 (stereo unspecified) 1.78 µM [inhibitor, full curve, poor fit]
COc1cc(C(=S)N2CCCC2)ccc1OC(=O)c1ccc(Cl)cc1[N+](=O)[O-] 22.4 µM [inhibitor, single point]
CC(=O)/C(C#N)=C1\NC(=O)C(Cc2ccccc2C)S1 (stereo unspecified) 1.12 µM [inhibitor, full curve, poor fit]
COc1cc(NC(=O)Nc2nc(C(N)C(C)C)cs2)cc(OC)c1OC (stereo unspecified) 28.2 µM [inhibitor, single point]
CCN(CC)c1ccc(NC(=O)CC2Oc3ccccc3NC2=O)c(C)c1 (stereo unspecified) 28.2 µM [inhibitor, single point]
c1ccc(-c2ccccc2OCCCN2CCCCC2)cc1 28.2 µM [inhibitor, single point]
Cc1ccc(S(=O)(=O)Nc2ccc3c(c2)c(C(=O)OC(C)C)c(C)n3S(=O)(=O)c2ccc(C)cc2)cc1 11.2 µM [inhibitor, partial curve, poor fit]
Cc1ccc(CCNC(=O)CN2CCN(Cc3ccc(Cl)cc3)C2=O)cc1 22.4 µM [inhibitor, single point]
O=S(=O)(Nc1ccc(Br)cc1)c1ccc2nc(-c3ccccc3)[nH]c2c1 11.2 µM [inhibitor, single point]
CN(CC(=O)NCc1ccc2c(c1)OCO2)S(=O)(=O)c1ccc(Cl)cc1 12.6 µM [inhibitor, partial curve, poor fit]
COc1ccc(Nc2nc(-c3cccnc3)nc3ccccc23)cn1 6.31 µM [inhibitor, partial curve, poor fit]
CC(C)N1CCC(N2CCN(Cc3cnc(-c4ccccc4)s3)CC2CCO)CC1 (stereo unspecified) 14.1 µM [inhibitor, partial curve, poor fit]
COC(=O)c1ccc2nc(-c3ccc(OC)c(OC)c3)c(Cc3ccccc3)n2c1 7.94 µM [inhibitor, partial curve, poor fit]
O=C(Nc1ccccc1-c1ccccc1)c1ccc(Br)o1 28.2 µM [inhibitor, single point]
O=C1CSc2ccc(S(=O)(=O)N3CCN(c4ccccc4F)CC3)cc2N1 28.2 µM [inhibitor, single point]
O=C(NC(c1ccccc1)c1ccc2ccccc2n1)C1CCN(CCOc2ccc(Cl)cc2Cl)CC1 (stereo unspecified) 14.1 µM [inhibitor, partial curve, poor fit]
COc1cc(/C=C/C(=O)OCC(=O)N2c3ccccc3NC(=O)C2(C)C)cc(OC)c1OC 20 µM [inhibitor, single point]
CCc1ccc(NC(=O)c2ccc3c(c2)c(C)c(C)n3Cc2ccccc2)cc1 3.16 µM [inhibitor, full curve, poor fit]
COCCNc1nc(CSc2ccccc2)nc2sc(C)c(C)c12 28.2 µM [inhibitor, single point]
Oc1ccc(Nc2nc(-c3ccc(Cl)cc3)nc3ccccc23)cc1 11.2 µM [inhibitor, single point]
CC(C)C12CN3CC(C(C)C)(CN(C1)C3c1ccc3c(c1)OCO3)C2=O (stereo unspecified) 12.6 µM [inhibitor, single point]
COc1ccc(N(CC(=O)N2CCN(c3ccccc3)CC2)S(=O)(=O)c2ccccc2)cc1 22.4 µM [inhibitor, single point]
NS(=O)(=O)c1ccc(CNC(=S)Nc2ccc(Cl)c(Cl)c2)cc1 11.2 µM [inhibitor, single point]

Activity change, negative = inhibition, inconclusive:
COc1ccccc1N=c1scc(-c2ccc3c(c2)NC(=O)CO3)n1CC1CCCO1 (stereo unspecified) -39.9% [inhibitor]
